Data from PubChem BioAssay AID2147 (National Center for Advancing Translational Sciences (NCATS), 2009).
In all, about 230,000 compounds went through this assay and about 3,600 (1.6%) were called active. Inconclusive means that the source gave no clear call. Such entries were picked first, then a sample of the others. Calls come from the whole dose curve; as a rule, active = well fitted inhibition curve with a large enough effect (not every such curve was filed as active); inconclusive = small, poorly fitted or top-dose-only effect, or another doubt; inactive = no such curve, though single readings can be large or run the other way. Potencies beside an inconclusive call are fits to weak or partial responses and may not hold up.

The compounds below were run against Lysine-specific demethylase 4E (Homo sapiens) (UniProt B2RXH2) (assay: qHTS Assay for Inhibitors of Human Jumonji Domain Containing 2E (JMJD2E)). Settings: JMJD2E catalytic domain, FDH-coupled NADH fluorescence (FDH is formaldehyde dehydrogenase); series mostly up to 57.1 µM.
Note: nearly all actives have a fitted effect of over 50% in size.
Potency is the fitted concentration of half-maximal effect; tags give direction and shape of the fitted curve.

Chain of UniProt B2RXH2 (B2RXH2 whole entry, looked up, the tested form may be a part): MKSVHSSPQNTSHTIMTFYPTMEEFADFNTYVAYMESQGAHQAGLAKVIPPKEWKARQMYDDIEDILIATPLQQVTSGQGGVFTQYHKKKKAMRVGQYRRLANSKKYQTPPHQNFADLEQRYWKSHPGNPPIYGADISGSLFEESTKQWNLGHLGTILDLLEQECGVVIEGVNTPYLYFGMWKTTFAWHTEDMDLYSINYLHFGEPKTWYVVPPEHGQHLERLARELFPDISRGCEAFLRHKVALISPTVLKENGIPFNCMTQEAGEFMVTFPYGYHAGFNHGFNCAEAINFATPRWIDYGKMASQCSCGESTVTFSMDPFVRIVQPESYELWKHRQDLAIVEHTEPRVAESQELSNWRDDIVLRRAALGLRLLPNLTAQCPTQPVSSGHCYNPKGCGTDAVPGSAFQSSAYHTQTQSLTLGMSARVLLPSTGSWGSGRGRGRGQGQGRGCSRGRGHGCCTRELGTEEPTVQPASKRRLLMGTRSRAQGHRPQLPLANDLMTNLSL

SMILES | Potency
CCn1c2ccccc2c2cc(NC(=O)CC(C)=O)ccc21 | inconclusive: 35.5 µM [inhibitor, single point]
Cc1ccc(-n2cnc3cc(NCc4cccs4)ccc32)cc1 | inconclusive: 3.98 µM [inhibitor, full curve]
Cn1nc(-c2ccc(Cl)cc2)c2cc(C(=O)NCCCN3CCCC3)sc21 | inconclusive: 28.2 µM [inhibitor, partial curve]
CCOC(=O)c1sc(NC(=O)CSc2nc(C)cc(-c3ccccc3)n2)c(C#N)c1C | inactive
O=C(N/N=C/c1cnc2ccccc2n1)c1cccc(F)c1 | inconclusive: 39.8 µM [inhibitor, single point]
Cc1cc(/C([O-])=C(/C(=S)Nc2ccc(F)cc2)[n+]2ccccc2)c(C)n1Cc1ccccc1Cl | inconclusive: 22.4 µM [inhibitor, partial curve, poor fit]
Cc1cc(C)n2c(SC/C(O)=C(\C#N)c3nc4ccccc4[nH]3)nnc2n1 | inconclusive: 35.5 µM [inhibitor, single point]
O=c1cc(C(F)F)oc2c1ccc1ccccc12 | inconclusive: 25.1 µM [inhibitor, partial curve]
CC1(C)CC(=O)C=C(Nc2ccccn2)C1 | inactive
CCN(CC)c1ccc(CNC23CN4CN(CN(C4)C2)C3)cc1 | inactive
CC(=O)c1ccc(N2CCN(C(=O)c3ccc(Cn4c(=S)[nH]c5ccc(N6CCOCC6)cc5c4=O)cc3)CC2)cc1 | inconclusive: 25.1 µM [inhibitor, partial curve]
Cc1ccc(/C=C/C(=O)Nc2nn[nH]n2)o1 | inconclusive: 39.8 µM [inhibitor, single point]
NC(=O)c1ccc(NCCCN2CCOCC2)c([N+](=O)[O-])c1 | inconclusive: 0.0089 µM [inhibitor, full curve]
C=CCOc1ccc2c(c1)c(=O)cc(C(=O)O)n2CC | inconclusive: 20 µM [inhibitor, partial curve]
CC(NC(=S)N1CCN(c2ccccc2)CC1)c1ccccc1 (centres undefined) | inactive
Cc1cccc(NS(=O)(=O)c2cnc(Cl)c(Br)c2)n1 | inactive
O=C(CN1C(=O)CCC1=O)Nc1nc(-c2nc3ccccc3s2)cs1 | inconclusive: 28.2 µM [inhibitor, partial curve]
Cn1c2ccccc2c(=O)c2c(=O)n(-c3ccc(F)cc3)c(-c3cccs3)nc21 | inconclusive: 3.98 µM [inhibitor, single point]
Cc1c(Cl)cccc1NC(=S)N1CCC(C(N)=O)(N2CCCCC2)CC1 | inactive
Cc1ccn2cc(CCNC(=O)CC3CCCCC3)nc2c1 | inconclusive: 25.1 µM [inhibitor, partial curve]
COCC(=O)N1CCC(Oc2ccc(C(=O)NCCc3ccncc3)cc2)CC1 | inactive
Cc1cc(C)n(CC(=O)N2c3ccccc3Sc3ccc(C(F)(F)F)cc32)n1 | inactive

SMILES | Potency
OCCN1CCN(c2nc(NCc3ccco3)c3ccccc3n2)CC1 | inconclusive: 28.2 µM [inhibitor, partial curve]
CCOc1cc2[nH]c(=S)n(CC3CCCN3CC)c(=O)c2cc1OCC (centres undefined) | inactive
CC1=C(C(=O)Nc2ccccc2)C(c2ccco2)C(C#N)=C(SCC(N)=O)N1 (centres undefined) | inconclusive: 39.8 µM [inhibitor, single point]
Cc1cc(C(F)F)n2nc(C(=O)Nc3ccc(S(=O)(=O)NC45CC6CC(CC(C6)C4)C5)cc3)nc2n1 | inconclusive: 35.5 µM [inhibitor, single point]
Cc1cc(C)cc(-n2c(C)cc(/C=N/NC(=O)c3cccc([N+](=O)[O-])c3C)c2C)c1 | inconclusive: 31.6 µM [inhibitor, single point]
Cc1c(C#N)c(O)n(CCO)c(=O)c1N=Nc1ccc2c(c1)COC2=O | inconclusive: 35.5 µM [inhibitor, single point]
CCCCn1c(NC(=O)c2ccccc2Cl)c(C#N)c2nc3ccccc3nc21 | inconclusive: 17.8 µM [inhibitor, partial curve]
CC1(C)CC2CC(C)(CN2C(=O)COC(=O)c2ccc(Cl)cc2N)C1 (centres undefined) | inconclusive: 28.2 µM [inhibitor, partial curve]
COc1ccc2c(c1)c(C(=O)CN1CCN(Cc3ccccc3)CC1)c(C)n2C | inconclusive: 28.2 µM [inhibitor, single point]
CC(C)Cc1nc2oc3c(NCc4cccnc4)ncnc3c2c2c1CCC2 | inconclusive: 25.1 µM [inhibitor, partial curve]
CCOc1cc(S(=O)(=O)Nc2ccc(Cl)cn2)ccc1F | inactive
C=CCNc1nc(NCc2ccccc2)c(C#N)c2c1CN(C)CC2 | inconclusive: 12.6 µM [inhibitor, partial curve]
CCN(CC)S(=O)(=O)c1ccc(C(=O)NCc2ccc(C)cc2)cc1 | inactive
N#CCC(=N)N1CCN(c2cccc(Cl)c2)CC1 | inconclusive: 14.1 µM [inhibitor, partial curve]
Cc1c(/N=C(\[O-])Nc2ccc(Br)cc2)sn[n+]1C | inconclusive: 35.5 µM [inhibitor, single point]
CCC(C)(C)NC(=O)C(c1ccc(F)cc1)N(Cc1ccco1)C(=O)c1snc(C(N)=O)c1N (centres undefined) | inconclusive: 22.4 µM [inhibitor, partial curve]
COc1cc(OC)c(NC(=O)c2c(-c3ccccc3)noc2C)cc1Cl | inconclusive: 35.5 µM [inhibitor, single point]
COc1ccc(OC)c(NC(=O)COC(=O)Cc2ccc(-c3ccccc3)cc2)c1 | inactive
O=C(COC(=O)c1ccc2[nH]c3c(c2c1)CCCC3)Nc1ccccc1Cl | inconclusive: 14.1 µM [inhibitor, partial curve]
CCCc1cnc(N2CCN(C(=O)c3c(-c4ccccc4)noc3C)CC2)nc1 | inconclusive: 31.6 µM [inhibitor, single point]
C=CCn1c(CNC(=O)c2cccs2)nnc1SCC(=O)c1ccc(Br)cc1 | inactive
O=[N+]([O-])c1cc(CN2CCC(O)CC2)ccc1Cl | inconclusive: 39.8 µM [inhibitor, single point]
